IC50 is the fitted dose that halves viability relative to control wells, and lower means more sensitive; a fit beyond the top or the lowest dose is shown as a bound at that dose. AUC, from the same fit, is the share of area under the viability curve across the 256-fold dose range: 1 means no effect, lower means more sensitive. For part of these data: Where the top dose is marked as inferred, it is not printed in the source and was worked back from the curve model.
How the values were obtained:
Assay in all cases: Viability of human cancer cell lines after 72 h of drug (GDSC screen)
[1] = compound: Oc1ccc2ccccc2c1SSc1c(O)ccc2ccccc12 [IPA-3]; settings: top dose 32 µM; top dose inferred
Method: (§1)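 Human cancer cell lines in 384-well plates, medium with 10% serum, drug for 72 h over a 256-fold dose range (nine 2-fold or five 4-fold steps up to the top dose). Adherent lines were fixed and stained with the nucleic acid dye Syto60, suspension lines read with resazurin; signal relative to control wells, capped at 0 and 100%. One two-parameter sigmoid per drug and line, fitted in a mixed model over all curves with the slope shared within a line.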

[2] = compound: Cn1nnc2c(C(N)=O)ncn2c1=O [Temozolomide]; settings: top dose 30 µM
Method: as §1

[3] = compound: COc1cc2c(Oc3ccc(NC(=O)C4(C(=O)Nc5ccc(F)cc5)CC4)cc3F)ccnc2cc1OCCCN1CCOCC1 [XL-880]; settings: top dose 5.12 µM; top dose inferred
Method: as §1

[4] = compound: CN1CCc2c(c3ccccc3n2Cc2ccc(C(=O)NO)cc2)C1 [Tubastatin A]; settings: top dose 20 µM
Method: as §1

[5] = compound: CN(C)C/C=C/C(=O)Nc1ccc(C(=O)Nc2cccc(Nc3nccc(-c4cccnc4)n3)c2)cc1 [ZG-10]; settings: top dose 10 µM; top dose inferred
Method: as §1

[6] = compound: O=C(NOCC1CC1)c1ccc(F)c(F)c1Nc1ccc(I)cc1Cl [CI-1040]; settings: top dose 10 µM; top dose inferred
Method: as §1

Cell Line | AUC [1] | IC50 [1] [µM] | AUC [2] | IC50 [2] [µM] | AUC [3] | IC50 [3] [µM] | AUC [4] | IC50 [4] [µM] | AUC [5] | IC50 [5] [µM] | AUC [6] | IC50 [6] [µM]
NCI-H196 (small cell lung carcinoma, adherent) | 0.988 | > 32 | 0.987 | > 30 | 0.766 | 1.97 | 0.975 | > 20 | 0.844 | 7.65 |  | 
KON (head and neck, adherent) | 0.788 | 13.7 | 0.963 | > 30 | 0.818 | 2.82 | 0.987 | > 20 |  |  | 0.85 | 7.37
Detroit562 (head and neck, adherent) | 0.988 | > 32 | 0.987 | > 30 | 0.765 | 1.8 | 0.987 | > 20 |  |  | 0.895 | > 10
TGBC11TKB (stomach, adherent) | 0.955 | > 32 | 0.992 | > 30 | 0.94 | > 5.12 | 0.985 | > 20 |  |  | 0.808 | 4.44
LNZTA3WT4 (glioma, adherent) | 0.988 | > 32 | 0.948 | > 30 | 0.761 | 1.79 | 0.979 | > 20 |  |  | 0.948 | > 10
HCC-366 (non-small cell lung carcinoma, adherent) |  |  | 0.986 | > 30 |  |  |  |  | 0.87 | > 10 |  | 
HuO-3N1 (osteosarcoma, adherent) | 0.958 | > 32 | 0.98 | > 30 | 0.747 | 2.11 | 0.962 | > 20 |  |  | 0.977 | > 10
HCT-116 (large intestine, adherent) | 0.98 | > 32 |  |  | 0.529 | 0.383 | 0.9 | > 20 | 0.67 | 1.81 |  | 
NCI-H661 (large cell lung carcinoma, adherent) | 0.931 | > 32 | 0.976 | > 30 | 0.608 | 0.675 | 0.962 | > 20 |  |  | 0.914 | > 10
647-V (bladder, adherent) | 0.875 | 31.7 | 0.909 | > 30 | 0.953 | > 5.12 | 0.986 | > 20 |  |  | 0.88 | > 10
HOP-92 (large cell lung carcinoma, adherent) | 0.901 | > 32 | 0.967 | > 30 | 0.877 | > 5.12 | 0.982 | > 20 |  |  | 0.756 | 3.92
SNU-449 (liver, adherent) | 0.86 | 30.9 | 0.975 | > 30 | 0.59 | 0.577 | 0.976 | > 20 |  |  | 0.916 | > 10
PANC-03-27 (pancreas, adherent) | 0.946 | > 32 | 0.987 | > 30 | 0.534 | 0.394 | 0.968 | > 20 |  |  | 0.751 | 3.1
NCI-H1048 (small cell lung carcinoma, adherent) | 0.98 | > 32 | 0.983 | > 30 | 0.489 | 0.3 | 0.962 | > 20 |  |  | 0.874 | 8.05
BFTC-905 (bladder, adherent) | 0.642 | 4.65 | 0.947 | > 30 | 0.68 | 0.939 | 0.984 | > 20 |  |  | 0.769 | 3.27
NCI-H647 (non-small cell lung carcinoma, adherent) | 0.984 | > 32 | 0.567 | 2.88 | 0.549 | 0.439 | 0.941 | > 20 |  |  | 0.895 | > 10
A375 (melanoma, adherent) | 0.855 | 18.7 |  |  | 0.57 | 0.48 | 0.95 | > 20 | 0.749 | 2.76 |  | 
G-292 Clone A141B1 (osteosarcoma, adherent) | 0.838 | > 32 | 0.972 | > 30 | 0.656 | 1.13 | 0.899 | > 20 |  |  | 0.909 | > 10
42-MG-BA (glioma, adherent) | 0.985 | > 32 | 0.957 | > 30 | 0.588 | 0.569 | 0.968 | > 20 |  |  | 0.856 | 8.91
HT-1080 (fibrosarcoma, adherent) | 0.725 | 8.02 | 0.971 | > 30 | 0.764 | 1.67 | 0.983 | > 20 |  |  | 0.675 | 1.81
G-361 (melanoma, adherent) | 0.889 | > 32 | 0.987 | > 30 | 0.681 | 0.999 | 0.92 | > 20 |  |  | 0.57 | 0.96
WM793B (melanoma, adherent) | 0.75 | 11.4 | 0.957 | > 30 | 0.619 | 0.704 | 0.984 | > 20 |  |  | 0.784 | 4.73
NCI-H358 (lung adenocarcinoma, adherent) | 0.821 | 21.2 | 0.98 | > 30 | 0.654 | 0.899 | 0.857 | 19.3 |  |  | 0.72 | 2.84
SU-DHL-5 (B-cell lymphoma, suspension) | 0.498 | 1.98 | 0.909 | 23.2 | 0.404 | 0.187 | 0.651 | 2.92 |  |  | 0.871 | 5.66
T98G (glioma, adherent) | 0.99 | > 32 | 0.984 | > 30 | 0.619 | 0.66 | 0.985 | > 20 |  |  | 0.87 | 8.16
